The other results are listed elsewhere or left out. Viral Rep nickase domains cut single-stranded DNA in vitro at 3 µM enzyme and 37 °C for 1 h; the strands have 90 letters, of which the middle is given. The score is log2 (uncut reads / reads without enzyme); uncut sequences lie near 0, cut ones below; no hit call is given. Reads are scaled to the total, so uncut sequences can rise above 0 when many others are cut.
The sequences below were run on T1, Rep nickase domain of porcine circovirus 2 (assay: uncleaved DNA left, log2 of reads against the no-enzyme library (log2 ratio); higher = less cleavage (more negative = more Rep cleavage of the k-mer); sequences stand for … in CTCGTCCG…ACCGGAGA).
T1 sequence (residues 2-116 of Rep, tag left off): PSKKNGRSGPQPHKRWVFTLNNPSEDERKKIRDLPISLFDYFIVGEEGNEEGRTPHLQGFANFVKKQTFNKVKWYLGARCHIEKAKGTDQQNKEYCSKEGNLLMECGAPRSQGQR
Description: (§1)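 A pool of 90-nt single-stranded DNAs with seven random bases just before the constant AC of the nick site (name = the seven bases) was cut by 3 µM recombinant His6-SUMO-tagged Rep nickase domain (300 nM DNA, 50 mM HEPES pH 8.0, 50 mM NaCl, 1 mM MnCl2, 1 h, 37 °C, three replicates). Uncut DNA was amplified and sequenced.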

Sequence	uncleaved DNA left (log2)
TCAATCA	0.121
GAAGCAG	0.206
ATCCTCT	-0.345
AATCTGA	0.0262
TGTGTGC	0.0831
GACTGCT	-2.94
TGGTTGG	0.137
AAGATTT	-3.7
AGCATTA	-1.11
AATCGTG	0.199
GGAGTGA	0.182
TGTTACG	-0.865
CCGCGAT	0.04
AGAATAT	-0.666
TGCCTAC	0.0611
GTTTACA	0.128
GCATAGA	0.191
GCTTTTA	0.0741
TTCGAAG	-0.0527
TTGTACA	-0.192

Sequence	uncleaved DNA left (log2)
GAGGGGG	0.205
CGGGTAG	0.157
GTCAACG	0.177
GATGTAG	-0.00979
GCGTGCC	0.0639
AACTGTA	-2.76
GGAAGAA	0.25
ACTTGGC	0.148
TGGCACG	0.132
CGGGTAC	0.201
ACCTTTA	-0.243
CGCCATA	-0.134
AATTCGT	-3.68
CGATTAT	-0.78
AGTGTTT	-3.17
AGCCATA	-0.453
CCACAAG	0.189
GCATGAA	0.125
CGTATGG	0.113
GACAACC	-0.393

What follows are sequences tested on T2, Rep nickase domain of tomato golden mosaic virus in the same assay as above.
T2 sequence (residues 1-124 of Rep, tag left off): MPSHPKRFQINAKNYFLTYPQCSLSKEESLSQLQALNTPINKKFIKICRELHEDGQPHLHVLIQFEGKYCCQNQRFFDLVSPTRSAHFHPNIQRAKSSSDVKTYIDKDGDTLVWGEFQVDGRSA
Description: as §1

Sequence	uncleaved DNA left (log2)
TCAATCA	0.104
GAAGCAG	-0.00324
ATCCTCT	-0.105
AATCTGA	0.0343
TGTGTGC	0.0372
GACTGCT	0.0116
TGGTTGG	0.0441
AAGATTT	0.107
AGCATTA	0.0209
AATCGTG	-0.0138
GGAGTGA	0.111
TGTTACG	-0.232
CCGCGAT	-0.0179
AGAATAT	0.0286
TGCCTAC	-0.0459
GTTTACA	0.109
GCATAGA	0.138
GCTTTTA	0.0509
TTCGAAG	-0.18
TTGTACA	-0.0571

Sequence	uncleaved DNA left (log2)
GAGGGGG	0.146
CGGGTAG	0.0527
GTCAACG	0.159
GATGTAG	-0.0295
GCGTGCC	0.0147
AACTGTA	-0.0529
GGAAGAA	-0.0692
ACTTGGC	-0.109
TGGCACG	-0.0469
CGGGTAC	0.0412
ACCTTTA	0.00606
CGCCATA	-0.0837
AATTCGT	-0.127
CGATTAT	-0.058
AGTGTTT	0.0927
AGCCATA	-0.0248
CCACAAG	-0.0344
GCATGAA	0.121
CGTATGG	-0.0727
GACAACC	-0.112

Each sequence was assayed on T3, Rep nickase domain of tomato yellow leaf curl virus in the same assay as above.
T3 sequence (residues 1-136 of Rep, tag left off): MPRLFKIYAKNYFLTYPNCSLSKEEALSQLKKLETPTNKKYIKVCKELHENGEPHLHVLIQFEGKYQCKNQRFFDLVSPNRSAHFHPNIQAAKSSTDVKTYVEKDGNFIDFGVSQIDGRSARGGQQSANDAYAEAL
Description: as §1

Sequence	uncleaved DNA left (log2)
TCAATCA	0.293
GAAGCAG	-0.0141
ATCCTCT	-0.0028
AATCTGA	-0.123
TGTGTGC	-0.0296
GACTGCT	0.0345
TGGTTGG	0.058
AAGATTT	0.0421
AGCATTA	-0.0512
AATCGTG	0.164
GGAGTGA	0.0929
TGTTACG	-0.0494
CCGCGAT	-0.0152
AGAATAT	0.02
TGCCTAC	-0.125
GTTTACA	0.124
GCATAGA	0.0443
GCTTTTA	-0.0247
TTCGAAG	-0.0258
TTGTACA	-0.0127

Sequence	uncleaved DNA left (log2)
GAGGGGG	0.102
CGGGTAG	0.133
GTCAACG	0.0831
GATGTAG	-0.0251
GCGTGCC	-0.0276
AACTGTA	-0.0518
GGAAGAA	0.0669
ACTTGGC	-0.021
TGGCACG	-0.0628
CGGGTAC	-0.0862
ACCTTTA	-0.192
CGCCATA	-0.0133
AATTCGT	-0.0505
CGATTAT	-0.097
AGTGTTT	0.0623
AGCCATA	-0.00685
CCACAAG	0.0585
GCATGAA	0.172
CGTATGG	0.0345
GACAACC	-0.0788

The sequences below were run on T4, Rep nickase domain of wheat dwarf virus in the same assay as above.
T4 sequence (residues 1-137 of Rep, tag left off): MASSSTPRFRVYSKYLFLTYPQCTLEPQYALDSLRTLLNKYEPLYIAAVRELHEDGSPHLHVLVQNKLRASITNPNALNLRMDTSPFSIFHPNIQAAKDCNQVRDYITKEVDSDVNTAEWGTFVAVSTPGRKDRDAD
Description: as §1

Sequence	uncleaved DNA left (log2)
TCAATCA	0.272
GAAGCAG	-0.0602
ATCCTCT	-0.101
AATCTGA	-0.0251
TGTGTGC	-0.0604
GACTGCT	-0.0289
TGGTTGG	0.00203
AAGATTT	0.115
AGCATTA	0.0681
AATCGTG	-0.073
GGAGTGA	0.183
TGTTACG	-0.208
CCGCGAT	-0.0639
AGAATAT	0.0967
TGCCTAC	-0.126
GTTTACA	0.0579
GCATAGA	0.00964
GCTTTTA	0.0633
TTCGAAG	-0.264
TTGTACA	0.0459

Sequence	uncleaved DNA left (log2)
GAGGGGG	0.0156
CGGGTAG	0.00978
GTCAACG	-0.0562
GATGTAG	-0.163
GCGTGCC	-0.0252
AACTGTA	0.154
GGAAGAA	0.138
ACTTGGC	-0.11
TGGCACG	-0.147
CGGGTAC	-0.0688
ACCTTTA	-0.0935
CGCCATA	-0.0275
AATTCGT	-0.177
CGATTAT	-0.0203
AGTGTTT	-0.00459
AGCCATA	0.0144
CCACAAG	0.00721
GCATGAA	0.139
CGTATGG	-0.0405
GACAACC	0.0253

— the supplement of paper PMC7826260
